# The supplement of paper PMC8728848
# The other results are listed elsewhere or left out.
# B1: NKR-PIC (Mus musculus) (protein)
# chain: GTGQKPSREKCCVFIQENLNKTTDCSVNLECPQDWLLHRDKCFHVSQVSNTWEEGQADCGRKGATLLLIQDQEELRFLLDSIKEKYNSFWIGLRFTLPDMNWKWINGTTFNSDVLKITGVTENGSCASILGDKVTPESCASDNRWICQKELNHETPSNDSGT
# Assays:
# Test in all cases: glycan array binding signal (z-score within array); higher = stronger binding
# Details in all cases: glycan notation: IUPAC condensed, linker removed
# [1] = target: Fuc(a1-2)Gal
# How it was run: (§1)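 The binding signal is a Z-score computed within each array and averaged over linkers. Arrays of the same protein sequence at different concentrations or buffers were also averaged together. Data originate from 3228 arrays in the Consortium for Functional Glycomics database, kept only where the protein sequence was available.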
# [2] = target: Fuc(a1-2)Gal(b1-3)GalNAc
# How it was run: as §1
# [3] = target: Fuc(a1-2)Gal(b1-3)GalNAc(a1-3)[Fuc(a1-2)]Gal(b1-4)Glc
# How it was run: as §1
# [4] = target: Fuc(a1-2)Gal(b1-3)GalNAc(a1-3)[Fuc(a1-2)]Gal(b1-4)GlcNAc
# How it was run: as §1
# [5] = target: Fuc(a1-2)Gal(b1-3)GalNAc(b1-3)Gal
# How it was run: as §1
# [6] = target: Fuc(a1-2)Gal(b1-3)GalNAc(b1-3)Gal(a1-4)Gal(b1-4)Glc
# How it was run: as §1
# [7] = target: Fuc(a1-2)Gal(b1-3)GalNAc(b1-4)[Neu5Ac(a2-3)]Gal(b1-4)Glc
# How it was run: as §1
# [8] = target: Fuc(a1-2)Gal(b1-3)GlcNAc
# How it was run: as §1
# [9] = target: Fuc(a1-2)Gal(b1-3)GlcNAc(b1-2)Man(a1-3)[Fuc(a1-2)Gal(b1-3)GlcNAc(b1-2)Man(a1-6)]Man(b1-4)GlcNAc(b1-4)GlcNAc
# How it was run: as §1
# [10] = target: Fuc(a1-2)Gal(b1-3)GlcNAc(b1-2)Man(a1-3)[Fuc(a1-2)Gal(b1-3)GlcNAc(b1-2)Man(a1-6)]Man(b1-4)GlcNAc(b1-4)[Fuc(a1-6)]GlcNAc
# How it was run: as §1
# [11] = target: Fuc(a1-2)Gal(b1-3)GlcNAc(b1-3)Gal(b1-4)Glc
# How it was run: as §1
# [12] = target: Fuc(a1-2)Gal(b1-3)GlcNAc(b1-3)GalNAc
# How it was run: as §1
# [13] = target: Fuc(a1-2)Gal(b1-3)GlcNAc(b1-3)[Fuc(a1-2)Gal(b1-3)GlcNAc(b1-6)]GalNAc
# How it was run: as §1
# [14] = target: Fuc(a1-2)Gal(b1-3)GlcNAc(b1-3)[Gal(b1-4)GlcNAc(b1-6)]Gal(b1-4)Glc
# How it was run: as §1
# [15] = target: Fuc(a1-2)Gal(b1-3)GlcNAc(b1-3)[Neu5Ac(a2-6)Gal(b1-4)GlcNAc(b1-6)]Gal(b1-4)Glc
# How it was run: as §1
# [16] = target: Fuc(a1-2)Gal(b1-3)GlcNAc6S
# How it was run: as §1
# [17] = target: Fuc(a1-2)Gal(b1-3)[Fuc(a1-4)]GlcNAc
# How it was run: as §1
# [18] = target: Fuc(a1-2)Gal(b1-3)[Fuc(a1-4)]GlcNAc(b1-2)Man(a1-3)[Fuc(a1-2)Gal(b1-3)[Fuc(a1-4)]GlcNAc(b1-2)Man(a1-3)]Man(b1-4)GlcNAc(b1-4)GlcNAc
# How it was run: as §1
# [19] = target: Fuc(a1-2)Gal(b1-3)[Fuc(a1-4)]GlcNAc(b1-2)Man(a1-3)[Fuc(a1-2)Gal(b1-3)[Fuc(a1-4)]GlcNAc(b1-2)Man(a1-6)]Man(b1-4)GlcNAc(b1-4)[Fuc(a1-6)]GlcNAc(b1-4)[Fuc(a1-6)]GlcNAc
# How it was run: as §1
# [20] = target: Fuc(a1-2)Gal(b1-3)[Fuc(a1-4)]GlcNAc(b1-3)[Fuc(a1-3)[Gal(b1-4)]GlcNAc(b1-6)]Gal(b1-4)Glc
# How it was run: as §1
# [21] = target: Fuc(a1-2)Gal(b1-3)[Fuc(a1-4)]GlcNAc(b1-3)[Gal(b1-4)GlcNAc(b1-6)]Gal(b1-4)Glc
# How it was run: as §1
# [22] = target: Fuc(a1-2)Gal(b1-4)Fuc(a1-3)]GlcNAc(b1-2)Man(a1-3)[Fuc(a1-2)Gal(b1-4)[Fuc(a1-3)]GlcNAc(b1-2)Man(a1-6)]Man(b1-4)GlcNAc(b1-4)GlcNAc
# How it was run: as §1
# [23] = target: Fuc(a1-2)Gal(b1-4)Glc
# How it was run: as §1
# [24] = target: Fuc(a1-2)Gal(b1-4)Glc6S
# How it was run: as §1
# [25] = target: Fuc(a1-2)Gal(b1-4)GlcNAc
# How it was run: as §1
# [26] = target: Fuc(a1-2)Gal(b1-4)GlcNAc(b1-2)Man
# How it was run: as §1
# [27] = target: Fuc(a1-2)Gal(b1-4)GlcNAc(b1-2)Man(a1-3)[Fuc(a1-2)Gal(b1-4)GlcNAc(b1-2)Man(a1-6)]Man(b1-4)GlcNAc(b1-4)GlcNAc
# How it was run: as §1
# [28] = target: Fuc(a1-2)Gal(b1-4)GlcNAc(b1-2)Man(a1-3)[Fuc(a1-2)Gal(b1-4)GlcNAc(b1-2)Man(a1-6)]Man(b1-4)GlcNAc(b1-4)[Fuc(a1-6)]GlcNAc
# How it was run: as §1
# [29] = target: Fuc(a1-2)Gal(b1-4)GlcNAc(b1-2)[Fuc(a1-2)Gal(b1-4)GlcNAc(b1-4)]Man(a1-3)[Fuc(a1-2)Gal(b1-4)GlcNAc(b1-2)Man(a1-6)]Man(b1-4)GlcNAc(b1-4)GlcNAc
# How it was run: as §1
# [30] = target: Fuc(a1-2)Gal(b1-4)GlcNAc(b1-3)Gal(b1-4)GlcNAc
# How it was run: as §1
binder,measurement,setting,value
B1,glycan array binding signal (z-score),[1],-0.371
same,glycan array binding signal (z-score),[2],-0.288
same,glycan array binding signal (z-score),[3],-0.357
same,glycan array binding signal (z-score),[4],-0.235
same,glycan array binding signal (z-score),[5],-0.268
same,glycan array binding signal (z-score),[6],-0.41
same,glycan array binding signal (z-score),[7],-0.278
same,glycan array binding signal (z-score),[8],-0.281
same,glycan array binding signal (z-score),[9],-0.138
same,glycan array binding signal (z-score),[10],-0.343
same,glycan array binding signal (z-score),[11],-0.342
same,glycan array binding signal (z-score),[12],-0.371
same,glycan array binding signal (z-score),[13],-0.237
same,glycan array binding signal (z-score),[14],-0.319
same,glycan array binding signal (z-score),[15],-0.362
same,glycan array binding signal (z-score),[16],-0.411
same,glycan array binding signal (z-score),[17],-0.358
same,glycan array binding signal (z-score),[18],-0.307
same,glycan array binding signal (z-score),[19],-0.31
same,glycan array binding signal (z-score),[20],-0.309
same,glycan array binding signal (z-score),[21],-0.363
same,glycan array binding signal (z-score),[22],-0.301
same,glycan array binding signal (z-score),[23],-0.376
same,glycan array binding signal (z-score),[24],-0.344
same,glycan array binding signal (z-score),[25],-0.25
same,glycan array binding signal (z-score),[26],-0.316
same,glycan array binding signal (z-score),[27],-0.242
same,glycan array binding signal (z-score),[28],-0.165
same,glycan array binding signal (z-score),[29],-0.284
same,glycan array binding signal (z-score),[30],-0.254
